54 compounds from PubChem BioAssay AID1347073 (National Center for Advancing Translational Sciences (NCATS), 2019) can be followed below.

Each structure is given as a SMILES string. About 200 (0.44%) of roughly 45,000 compounds were called active. Not shown: some 7% with an inconclusive outcome. Calls follow the shape of the dose curve; as a rule, active = well fitted activation curve with a large enough effect; inconclusive = small, poorly fitted or top-dose-only effect; inactive = no such curve, though single readings can be large or run the other way. Some of the results follow.

The assay is described as follows: qHTS of TDP-43 Inhibitors: NCGC Sytravon Library Screen. Also: 0% is about no effect; nearly all actives have a fitted effect of over 55% in size. Conditions: yeast TDP-43 toxicity rescue, BacTiter-Glo growth, 24 h; series mostly up to 46.1 µM; growth rescue (activation): at the top concentration. Summed up: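 TDP-43-expressing yeast, pregrown in raffinose, seeded at OD600 0.02 in galactose medium with compound for 24 hr at 30 deg C. Growth read by BacTiter-Glo luminescence, so rescue of toxicity appears as activation.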
(In general: qHTS replaces the single test concentration by a dilution series.)
Turning to `CCN(CC)S(=O)(=O)c1cccc(NC(=O)c2ccc(C#N)cc2)c1`, the “growth rescue (activation)” value was inactive: 14.4%.
To `O=C(NCC1CCCCC1)c1ccccc1[N+](=O)[O-]` belongs inactive: 12%.
Regarding `Cc1cc(C)cc(NC(=O)CCN2C(=O)c3ccccc3C2=O)c1`, the “growth rescue (activation)” value was inactive: -14.5%.
To `O=C(OCCN=C1NS(=O)(=O)c2ccccc21)c1cccs1` belongs inactive: -10.5%.
As for `CCOC(=O)C1(CCOc2ccccc2)CCN(Cc2ccc(CO)o2)CC1`, the “growth rescue (activation)” value is inactive: -0.277%.
The result for `COc1ccc(/C=N/Nc2cc(C)nc(-n3nc(C)cc3C)n2)c(OC)c1` reads inactive: 13.2%; that for `CCc1ccccc1NC(=O)C1C2C=CC(O2)C1C(=O)O` (centres undefined), inactive: -1.23%.
As to `O=C(Nc1cccc(O)c1)c1ccc(C(=O)c2ccccc2)o1`, the “growth rescue (activation)” value was inactive: 15.7%.
As for `Cn1cc(Br)c(C(=O)NNC(=O)Nc2ccccc2C(F)(F)F)n1`, the “growth rescue (activation)” value is inactive: -18%.
Regarding `O=C(CN1C(=O)NC2(CCCC2)C1=O)Nc1ccc(C(F)(F)F)cc1`, the “growth rescue (activation)” value was inactive: -6.03%.
To `CNC(=O)c1cc(NC(=O)CCn2nc(-c3ccc(C)cc3)c3ccccc3c2=O)ccc1OC` belongs inactive: 2.01%.
To `COc1ccc(NC(=S)N(CCN(C)C)C(C)c2ccco2)cc1` (centres undefined) belongs inactive: 11%; to `CC1CCc2c(sc3nc(CSc4nnnn4C)[nH]c(=O)c23)C1` (centres undefined), inactive: 19.1%.
For the compound `Cn1nnnc1Sc1ncnc2scc(-c3ccccc3)c12`, the “growth rescue (activation)” value was inactive: 36.4%.
The result for `COc1ccc(C)cc1N(C(=O)c1ccccc1)c1nc2ccccc2s1` reads inactive: -1.47%.
The result for `CC(C)Sc1nc2ccc(Br)cc2[nH]1` reads inactive: 16.1%; that for `Cc1sc2ncnc(SCC(=O)N3CCCC3)c2c1C`, inactive: 10.7%.
In the case of `CCC(CC)NC(=O)c1cc(OC)c(OC)c(OC)c1`, the “growth rescue (activation)” value is inactive: -21.8%.
As for `CCCN1CCC(NC(=O)CCc2nnc(Cc3cc(OC)ccc3OC)o2)CC1`, the “growth rescue (activation)” value was inactive: 7.63%.
To `S=C(Nc1ccc(Cl)cc1Cl)NC1CCN(Cc2ccccc2)CC1` belongs inactive: 10.9%.
To `O=C(O)c1ccccc1NS(=O)(=O)c1cccc(NS(=O)(=O)c2cc(Br)ccc2Br)c1` belongs inactive: 10.7%; to `Nc1cc(=O)[nH]c(SCC(=O)Nc2cc(S(=O)(=O)N3CCCCCC3)ccc2Cl)n1`, inactive: -15.7%.
Take `O=C(c1ccco1)N1CCN(Cc2cccc3ccccc23)CC1`: the “growth rescue (activation)” value was inactive: 5.25%.
Take `CCCNCc1cc(OC)c(OCc2ccccc2)cc1Br`: the “growth rescue (activation)” value is inactive: -4.29%.
Take `COC(=O)c1cc(C(=O)N2CCN(c3ncccn3)CC2)cc([N+](=O)[O-])c1`: the “growth rescue (activation)” value was inactive: -36.9%.
For `Cc1nn(C(C)C(=O)O)c(C)c1[N+](=O)[O-]` (centres undefined), the “growth rescue (activation)” value is inactive: 5.54%.
To `COc1cc2c(cc1OC)CN(C(=O)C(CCSC)NS(=O)(=O)c1ccc(C)cc1)CC2` (centres undefined) belongs inactive: 8.09%.
To `O=C(Nc1ccc(F)cc1)c1nc2c(nnn2Cc2cccc3ccccc23)c(=O)[nH]1` belongs inactive: -15.1%.
As for `CS(=O)(=O)N1CCC(C(=O)N2CCN(C(c3ccccc3)c3ccccc3)CC2)CC1`, the “growth rescue (activation)” value is inactive: -13.8%.
For `Cc1nc2ccc(C(=O)N3CCN(Cc4ccccc4)CC3)cc2[nH]1`, the “growth rescue (activation)” value was inactive: 14.3%.
The result for `COCCNC(=O)C(c1ccc(C)o1)N(C(=O)C(=O)NC1CCCCC1)c1ccc(F)cc1` (centres undefined) reads inactive: 16%.
The result for `Cc1cc(Br)cnc1NC(=S)Nc1ccc(F)cc1F` reads inactive: 9.3%.
As to `O=[N+]([O-])c1ccc(/C=N/n2cn[nH]c2=S)cc1`, the “growth rescue (activation)” value was inactive: 7.2%.
Consider `O=C(Nc1ccccc1NC(=O)c1ccco1)c1ccccc1`, for which the “growth rescue (activation)” value is inactive: -5.08%.
The result for `CCOC(=O)c1ccc(S(=O)(=O)NCCN2CCOCC2)cc1` reads inactive: 0.868%; that for `CCN(CC)CCCN(Cc1cc2cc(OC)ccc2[nH]c1=O)C(=O)Nc1ccc(F)cc1`, inactive: -3.96%.
The result for `CC(C)(C)c1ccccc1NC(=O)Nc1nc(C(N)c2ccccc2)cs1` (centres undefined) reads inactive: 2.89%; that for `CCCCCCCCCn1c2c(c(=N)c3c1CCC3)CCCC2`, inactive: -90.3%; that for `CCCCCn1c(=O)[nH]c2cc(C(=O)N3CCN(c4ccc(F)cc4)CC3)ccc2c1=O`, inactive: 8.82%.
The result for `O=C(O)c1[nH]c2ccccc2c1CC(=O)N1CCN(c2ccccc2)CC1` reads inactive: -1.76%.
In the case of `Cc1[nH]c(=O)c(C#N)c(C)c1CCC(=O)NCc1cccc(C(F)(F)F)c1`, the “growth rescue (activation)” value is inactive: -8.88%.
Consider `Cc1cc(C)cc(C(O)c2ncc(-c3cccc(F)c3)[nH]2)c1` (centres undefined), for which the “growth rescue (activation)” value is inactive: -1.8%.
Regarding `CN(Cc1ccccc1F)C(=O)CCCNC(=O)c1ccc(Cl)cc1`, the “growth rescue (activation)” value is inactive: -24.9%.
To `COc1cc(NC(=S)N2CCCCC2C)cc(OC)c1OC` (centres undefined) belongs inactive: -5.04%.
The result for `CC(C)(C)Sc1ccc2nc3c(n2c1)CCCC3` reads inactive: 3.06%; that for `NC(=O)NC(=O)C(Nc1ccc(N2CCCCC2)cc1)c1ccccc1` (centres undefined), inactive: 15.8%; that for `COc1ccc2nc(NC(=O)CC3Oc4ccccc4NC3=O)sc2c1` (centres undefined), inactive: 0.0653%.
Consider `CCCn1c(N2CCN(CC(=O)c3c(C)n(C)c4ccc(OC)cc34)CC2)nc2c1c(=O)[nH]c(=O)n2C`, for which the “growth rescue (activation)” value is inactive: -0.0566%.
Take `CC(=O)Nc1ccc(Nc2ccc([N+](=O)[O-])cn2)cc1`: the “growth rescue (activation)” value is inactive: 20.2%.
To `COc1ccc(Cl)cc1C(=O)NNC(=O)c1cccs1` belongs inactive: 21.4%.
As to `O=C(NCCNC(=O)c1cccc(O)c1)c1cccc(O)c1`, the “growth rescue (activation)” value is inactive: -10.9%.
The result for `CCOC(=O)c1sc2nc(C)nc(N3CCN(S(=O)(=O)c4ccccc4)CC3)c2c1C` reads inactive: 15%.
To `CCOc1cc(NCCN2CCOCC2)c([N+](=O)[O-])cc1OCC` belongs inactive: 4.25%; to `Cc1ccsc1/C=C/c1n[nH]c(=O)c(C#N)c1C`, inactive: 10.1%.
